The values that follow come from article PMC7139218, “Structural Basis for Rab8a Recruitment of RILPL2 via LRRK2 Phosphorylation of Switch 2” (Structure(London, England:1993), 2020).

Amino acid sequences for entries named in this document (tags omitted).
UniProt P61006: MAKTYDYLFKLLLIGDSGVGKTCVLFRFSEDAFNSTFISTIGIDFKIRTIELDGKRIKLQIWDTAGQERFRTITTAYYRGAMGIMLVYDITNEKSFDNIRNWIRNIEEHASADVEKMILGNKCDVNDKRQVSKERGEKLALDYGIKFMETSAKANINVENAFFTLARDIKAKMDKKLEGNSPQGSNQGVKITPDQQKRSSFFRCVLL

Numbering of substitutions follows the chain as printed. These are yes or no findings as the source states them, for the method shown. In cells and extracts the contact can be indirect. Some entries that bind do so weakly or less than the wild type. Tags and fused reporters may be left off the sequences shown.

Common to all, as to assay: co-IP; HEK293 cells co-expressing Flag-LRRK2 (R1441G or Y1699C), HA-Rab and GFP-tagged effector, no MLi-2; GFP fusion precipitated with GFP binder Sepharose, 1 h, washed in 50 mM Tris-HCl pH 7.5, 150 mM NaCl; immunoblot
Assay [1] has as its target T1, JIP4-GFP (full length) (UniProt O60271).
T1 sequence: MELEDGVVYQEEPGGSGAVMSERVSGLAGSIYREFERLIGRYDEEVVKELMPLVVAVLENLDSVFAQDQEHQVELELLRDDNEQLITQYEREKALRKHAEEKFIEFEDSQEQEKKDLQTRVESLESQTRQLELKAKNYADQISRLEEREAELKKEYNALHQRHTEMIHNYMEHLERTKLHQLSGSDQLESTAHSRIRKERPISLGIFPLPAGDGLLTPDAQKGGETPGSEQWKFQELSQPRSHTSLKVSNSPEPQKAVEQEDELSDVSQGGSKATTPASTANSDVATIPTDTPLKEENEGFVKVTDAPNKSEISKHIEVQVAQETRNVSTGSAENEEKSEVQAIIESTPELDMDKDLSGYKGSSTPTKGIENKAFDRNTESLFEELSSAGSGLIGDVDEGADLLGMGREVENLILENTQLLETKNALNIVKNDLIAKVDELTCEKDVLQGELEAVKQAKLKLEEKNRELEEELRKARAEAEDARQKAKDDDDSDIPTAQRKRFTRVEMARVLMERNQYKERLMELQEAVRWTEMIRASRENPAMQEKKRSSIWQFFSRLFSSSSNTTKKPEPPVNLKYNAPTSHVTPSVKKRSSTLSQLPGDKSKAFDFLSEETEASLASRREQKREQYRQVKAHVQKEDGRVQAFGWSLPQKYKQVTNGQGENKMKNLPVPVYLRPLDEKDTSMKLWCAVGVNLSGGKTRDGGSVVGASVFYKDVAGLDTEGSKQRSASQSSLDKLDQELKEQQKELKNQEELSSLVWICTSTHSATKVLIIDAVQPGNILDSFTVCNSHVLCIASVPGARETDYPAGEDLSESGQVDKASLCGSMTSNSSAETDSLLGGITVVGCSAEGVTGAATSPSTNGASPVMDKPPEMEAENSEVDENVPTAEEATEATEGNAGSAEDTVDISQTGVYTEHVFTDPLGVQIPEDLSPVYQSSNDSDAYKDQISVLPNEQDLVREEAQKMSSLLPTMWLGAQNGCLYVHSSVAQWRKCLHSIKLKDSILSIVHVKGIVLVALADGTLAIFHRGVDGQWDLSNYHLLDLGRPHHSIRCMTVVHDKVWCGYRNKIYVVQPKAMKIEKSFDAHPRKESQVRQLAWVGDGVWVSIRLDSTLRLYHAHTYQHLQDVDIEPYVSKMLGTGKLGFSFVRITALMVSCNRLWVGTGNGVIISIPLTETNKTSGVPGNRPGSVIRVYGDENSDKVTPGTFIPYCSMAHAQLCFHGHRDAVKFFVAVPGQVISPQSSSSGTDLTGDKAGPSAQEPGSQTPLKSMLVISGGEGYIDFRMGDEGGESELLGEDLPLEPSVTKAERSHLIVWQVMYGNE

For assay [2], the target named is T2, RILPL2-GFP K149A (human) (UniProt Q969X0).
T2 sequence: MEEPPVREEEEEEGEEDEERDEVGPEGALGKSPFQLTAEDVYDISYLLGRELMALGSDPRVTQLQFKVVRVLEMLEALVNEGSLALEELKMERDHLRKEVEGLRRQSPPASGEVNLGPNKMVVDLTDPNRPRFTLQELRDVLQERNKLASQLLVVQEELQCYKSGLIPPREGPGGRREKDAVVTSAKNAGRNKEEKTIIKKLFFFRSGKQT

For assay [3], the target named is T3, RILPL2-GFP R139Q (human) (UniProt Q969X0).
T3 sequence: T2 sequence with R139Q, A149K

The target of assay [4] is T4, RILPL2-GFP R139A (human) (UniProt Q969X0).
T4 sequence: T2 sequence with R139A, A149K

Assay [5] deals with T5, RILPL2-GFP K149Q (human) (UniProt Q969X0).
T5 sequence: T2 sequence with A149Q

For the substance “HA-Rab8a WT, LRRK2-phosphorylated (pT72) (from UniProt P61006 1-207)”, the binding entry in assay [1] is listed as “binds weakly”; in assay [2] it was “no binding”; in assay [3], “binds”; in assay [4], “binds”; in assay [5], “no binding”.
